Measured values reported in patent publication US12366572B2, “Activation of bioluminescence by structural complementation” (Promega Corporation, priority 2013, dated 2025).

Target: NLpep53 (Oplophorus gracilirostris, UniProt Q9GV45)
Test: Luminescence of additional NLpoly variants (5A2 background) after complementation with NLpep53 (Example 31)
Conditions: E. coli lysate, NanoGlo reagent, 5 and 30 minutes

B1: Glu-11 (protein)
chain: MVFTLEDFVGDWEQTAAYNLDQVLEQGGVSSLFQNLAVSVTPIQRIVLSGENALKIDIHVIIPYEGLSADQMAQIEKIFKVVYPVDDHHFKVILHYGTLVIDGVTPNMIDYFGRPYEGIAVFDGKKITVTGTLWNGNKIIDERLINPDGSLLFRVTINV
With B1 as the molecule, how does the “Luminescence after complementation with NLpep-53 compared with parental 5A2” value read?
The value was “significantly more luminescence than parental 5A2”.
